This is an account of results in the supplement of paper PMC10369915.

The other results are listed elsewhere or left out. Rule as the data show it: active = 3.2 or more and inactive = the rest. Most of these values are background signal.
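Also: displayed peptides selected on beads carrying the immobilized SH2 domain, with library peptides lacking any tyrosine serving as negative controls.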

The first experiment addresses SHP2 C-SH2 domain E139D. Put plainly: enrichment score (SH2-bound / input frequency) (ratio); bacterial display of known human phosphotyrosine sites (pTyr-Var adds point mutants) read by sequencing; higher = stronger binding; tyrosines were phosphorylated by kinases first. The note with it: peptide library: Human pTyr.
Consider SNAKEDAYLTPERLW [LMTK3_HUMAN_297_YA], for which the enrichment score was inactive: 0.744.

In the case of TNASNPVYAKLAMDG [LRP1B_HUMAN_4562_YA], the enrichment score was inactive: 1.45.

On to AFQCCRDYENVPAAD [LAX1_HUMAN_294], for which the enrichment score was inactive: 0.766.

As to KMAEMKKYTLENKEE [LRC47_HUMAN_509], the enrichment score is inactive: 1.25.

For GANSVASYENEGASG [LAT_HUMAN_110], the enrichment score is inactive: 0.623.

On to ALDEAAAYQSRDAAN [ANDR_HUMAN_359_YA], for which the enrichment score was inactive: 0.522.

With ASPVVAEYARVQKRK [LIME1_HUMAN_167], the enrichment score is inactive: 0.521.

Turning to NLDNGGFYISPRITF [LCK_HUMAN_192], the enrichment score is inactive: 1.1.

As for YGLAHCKYREDYFVT [LMTK1_HUMAN_279], the enrichment score is inactive: 1.57.

With VELRLRNYAADVVNG [KSYK_HUMAN_629_YA], the enrichment score was inactive: 1.18.

Regarding YAPECINYYKFSSKS [KSYK_HUMAN_546], the enrichment score was inactive: 1.7.

For the molecule STEDTAEYSPFKGGA [ANDR_HUMAN_309_YA], the enrichment score was inactive: 0.717.

Consider DPIAMEYYNWGRFSK [LAT2_HUMAN_119], for which the enrichment score was inactive: 1.54.

For EEEGAPDYENLQELN [LAT_HUMAN_255], the enrichment score was inactive: 1.2.

Consider MEEDEEDYESSAKLL [LCAP_HUMAN_70], for which the enrichment score was inactive: 1.37.

On to DIYRASYYRRGDRAL [LTK_HUMAN_677], for which the enrichment score is inactive: 0.584.

As to SSFEEDDYESPNDDQ [LCP2_HUMAN_113], the enrichment score was inactive: 1.11.

Turning to APSSGQIYGSGPQGA [LPP_HUMAN_244_YA], the enrichment score is inactive: 0.657.

The next experiment deals with SHP2 C-SH2 domain wild-type. The description is as above. The note with it: peptide library: Human pTyr.
In the case of SNAKEDAYLTPERLW [LMTK3_HUMAN_297_YA], the enrichment score was inactive: 0.497.

For TNASNPVYAKLAMDG [LRP1B_HUMAN_4562_YA], the enrichment score was inactive: 2.73.

As for AFQCCRDYENVPAAD [LAX1_HUMAN_294], the enrichment score was inactive: 0.814.

For KMAEMKKYTLENKEE [LRC47_HUMAN_509], the enrichment score is inactive: 1.3.

GANSVASYENEGASG [LAT_HUMAN_110]: the enrichment score is inactive: 0.618.

As to ALDEAAAYQSRDAAN [ANDR_HUMAN_359_YA], the enrichment score was inactive: 0.378.

On to ASPVVAEYARVQKRK [LIME1_HUMAN_167], for which the enrichment score is inactive: 0.479.

Consider NLDNGGFYISPRITF [LCK_HUMAN_192], for which the enrichment score is inactive: 1.

For the molecule YGLAHCKYREDYFVT [LMTK1_HUMAN_279], the enrichment score is inactive: 1.35.

For the molecule VELRLRNYAADVVNG [KSYK_HUMAN_629_YA], the enrichment score was inactive: 1.02.

Turning to YAPECINYYKFSSKS [KSYK_HUMAN_546], the enrichment score is inactive: 1.63.

STEDTAEYSPFKGGA [ANDR_HUMAN_309_YA]: the enrichment score is inactive: 0.564.

As to DPIAMEYYNWGRFSK [LAT2_HUMAN_119], the enrichment score is inactive: 1.61.

EEEGAPDYENLQELN [LAT_HUMAN_255]: the enrichment score is inactive: 0.801.

MEEDEEDYESSAKLL [LCAP_HUMAN_70]: the enrichment score is inactive: 1.32.

On to DIYRASYYRRGDRAL [LTK_HUMAN_677], for which the enrichment score is inactive: 0.636.

SSFEEDDYESPNDDQ [LCP2_HUMAN_113]: the enrichment score was inactive: 1.12.

With APSSGQIYGSGPQGA [LPP_HUMAN_244_YA], the enrichment score is inactive: 0.424.

A further experiment deals with SHP2 N-SH2 domain L43F. The description is as above. The note with it: peptide library: Human pTyr.
In the case of SNAKEDAYLTPERLW [LMTK3_HUMAN_297_YA], the enrichment score was inactive: 1.43.

Turning to TNASNPVYAKLAMDG [LRP1B_HUMAN_4562_YA], the enrichment score is inactive: 1.67.

As to AFQCCRDYENVPAAD [LAX1_HUMAN_294], the enrichment score is inactive: 0.739.

On to KMAEMKKYTLENKEE [LRC47_HUMAN_509], for which the enrichment score is inactive: 1.42.

Take GANSVASYENEGASG [LAT_HUMAN_110]: the enrichment score was inactive: 0.652.

With ALDEAAAYQSRDAAN [ANDR_HUMAN_359_YA], the enrichment score is inactive: 0.561.

As for ASPVVAEYARVQKRK [LIME1_HUMAN_167], the enrichment score is inactive: 0.63.

In the case of NLDNGGFYISPRITF [LCK_HUMAN_192], the enrichment score is inactive: 0.925.

Take YGLAHCKYREDYFVT [LMTK1_HUMAN_279]: the enrichment score is inactive: 1.49.

On to VELRLRNYAADVVNG [KSYK_HUMAN_629_YA], for which the enrichment score was inactive: 1.12.

As to YAPECINYYKFSSKS [KSYK_HUMAN_546], the enrichment score was inactive: 1.14.

STEDTAEYSPFKGGA [ANDR_HUMAN_309_YA]: the enrichment score was inactive: 0.705.

DPIAMEYYNWGRFSK [LAT2_HUMAN_119]: the enrichment score was inactive: 1.63.

As to EEEGAPDYENLQELN [LAT_HUMAN_255], the enrichment score was inactive: 1.02.

With MEEDEEDYESSAKLL [LCAP_HUMAN_70], the enrichment score was inactive: 1.08.

For DIYRASYYRRGDRAL [LTK_HUMAN_677], the enrichment score is inactive: 0.635.

Regarding SSFEEDDYESPNDDQ [LCP2_HUMAN_113], the enrichment score is inactive: 1.8.

For the molecule APSSGQIYGSGPQGA [LPP_HUMAN_244_YA], the enrichment score was inactive: 0.634.

In the next experiment the target is SHP2 N-SH2 domain T42A. The description is as above. The note with it: peptide library: Human pTyr.
For the molecule SNAKEDAYLTPERLW [LMTK3_HUMAN_297_YA], the enrichment score was inactive: 1.11.

As for TNASNPVYAKLAMDG [LRP1B_HUMAN_4562_YA], the enrichment score was active: 5.06.

Regarding AFQCCRDYENVPAAD [LAX1_HUMAN_294], the enrichment score is inactive: 0.852.

As to KMAEMKKYTLENKEE [LRC47_HUMAN_509], the enrichment score is inactive: 1.09.

For GANSVASYENEGASG [LAT_HUMAN_110], the enrichment score is inactive: 0.594.

In the case of ALDEAAAYQSRDAAN [ANDR_HUMAN_359_YA], the enrichment score was inactive: 0.502.

On to ASPVVAEYARVQKRK [LIME1_HUMAN_167], for which the enrichment score is inactive: 0.623.

As to NLDNGGFYISPRITF [LCK_HUMAN_192], the enrichment score was inactive: 0.857.

With YGLAHCKYREDYFVT [LMTK1_HUMAN_279], the enrichment score is inactive: 1.28.

VELRLRNYAADVVNG [KSYK_HUMAN_629_YA]: the enrichment score was inactive: 1.

Consider YAPECINYYKFSSKS [KSYK_HUMAN_546], for which the enrichment score is inactive: 1.58.

In the case of STEDTAEYSPFKGGA [ANDR_HUMAN_309_YA], the enrichment score is inactive: 0.604.

As to DPIAMEYYNWGRFSK [LAT2_HUMAN_119], the enrichment score is inactive: 1.47.

On to EEEGAPDYENLQELN [LAT_HUMAN_255], for which the enrichment score is inactive: 0.988.

Take MEEDEEDYESSAKLL [LCAP_HUMAN_70]: the enrichment score is inactive: 1.14.

For DIYRASYYRRGDRAL [LTK_HUMAN_677], the enrichment score was inactive: 0.653.

With SSFEEDDYESPNDDQ [LCP2_HUMAN_113], the enrichment score is inactive: 1.1.

With APSSGQIYGSGPQGA [LPP_HUMAN_244_YA], the enrichment score was inactive: 0.575.

The target in another experiment is SHP2 N-SH2 domain T52S. The description is as above. The note with it: peptide library: Human pTyr.
Regarding SNAKEDAYLTPERLW [LMTK3_HUMAN_297_YA], the enrichment score is inactive: 1.11.

For the molecule TNASNPVYAKLAMDG [LRP1B_HUMAN_4562_YA], the enrichment score is inactive: 1.43.

Turning to AFQCCRDYENVPAAD [LAX1_HUMAN_294], the enrichment score is inactive: 0.883.

Turning to KMAEMKKYTLENKEE [LRC47_HUMAN_509], the enrichment score was inactive: 1.44.

Regarding GANSVASYENEGASG [LAT_HUMAN_110], the enrichment score was inactive: 0.688.

For ALDEAAAYQSRDAAN [ANDR_HUMAN_359_YA], the enrichment score is inactive: 0.53.

Take ASPVVAEYARVQKRK [LIME1_HUMAN_167]: the enrichment score is inactive: 0.614.

Consider NLDNGGFYISPRITF [LCK_HUMAN_192], for which the enrichment score was inactive: 1.04.

With YGLAHCKYREDYFVT [LMTK1_HUMAN_279], the enrichment score is inactive: 1.89.

In the case of VELRLRNYAADVVNG [KSYK_HUMAN_629_YA], the enrichment score is inactive: 1.29.

Regarding YAPECINYYKFSSKS [KSYK_HUMAN_546], the enrichment score is inactive: 2.34.

On to STEDTAEYSPFKGGA [ANDR_HUMAN_309_YA], for which the enrichment score was inactive: 0.703.

In the case of DPIAMEYYNWGRFSK [LAT2_HUMAN_119], the enrichment score is inactive: 1.95.

In the case of EEEGAPDYENLQELN [LAT_HUMAN_255], the enrichment score is inactive: 1.04.

In the case of MEEDEEDYESSAKLL [LCAP_HUMAN_70], the enrichment score is inactive: 1.46.

On to DIYRASYYRRGDRAL [LTK_HUMAN_677], for which the enrichment score is inactive: 0.61.

For the molecule SSFEEDDYESPNDDQ [LCP2_HUMAN_113], the enrichment score is inactive: 1.19.

With APSSGQIYGSGPQGA [LPP_HUMAN_244_YA], the enrichment score was inactive: 0.499.

The target of a further experiment is SHP2 N-SH2 domain wild-type. Described as above. The note with it: peptide library: Human pTyr.
Take SNAKEDAYLTPERLW [LMTK3_HUMAN_297_YA]: the enrichment score is inactive: 0.783.

TNASNPVYAKLAMDG [LRP1B_HUMAN_4562_YA]: the enrichment score is inactive: 0.764.

AFQCCRDYENVPAAD [LAX1_HUMAN_294]: the enrichment score is inactive: 0.769.

As for KMAEMKKYTLENKEE [LRC47_HUMAN_509], the enrichment score is inactive: 1.77.

With GANSVASYENEGASG [LAT_HUMAN_110], the enrichment score was inactive: 0.727.

For ALDEAAAYQSRDAAN [ANDR_HUMAN_359_YA], the enrichment score is inactive: 0.503.

ASPVVAEYARVQKRK [LIME1_HUMAN_167]: the enrichment score was inactive: 0.706.

Take NLDNGGFYISPRITF [LCK_HUMAN_192]: the enrichment score was inactive: 0.842.

Turning to YGLAHCKYREDYFVT [LMTK1_HUMAN_279], the enrichment score is inactive: 2.28.

As for VELRLRNYAADVVNG [KSYK_HUMAN_629_YA], the enrichment score was inactive: 1.32.

In the case of YAPECINYYKFSSKS [KSYK_HUMAN_546], the enrichment score is inactive: 1.91.

As to STEDTAEYSPFKGGA [ANDR_HUMAN_309_YA], the enrichment score is inactive: 0.807.

In the case of DPIAMEYYNWGRFSK [LAT2_HUMAN_119], the enrichment score is inactive: 2.07.

For the molecule EEEGAPDYENLQELN [LAT_HUMAN_255], the enrichment score is inactive: 1.06.

On to MEEDEEDYESSAKLL [LCAP_HUMAN_70], for which the enrichment score was inactive: 1.47.

DIYRASYYRRGDRAL [LTK_HUMAN_677]: the enrichment score is inactive: 0.764.

In the case of SSFEEDDYESPNDDQ [LCP2_HUMAN_113], the enrichment score was inactive: 1.25.

As to APSSGQIYGSGPQGA [LPP_HUMAN_244_YA], the enrichment score is inactive: 0.846.
